Read counts are not given, so values of variants with three or more changes are uncertain.
B1: LINE1-mini (parent)
chain: GGCAGAGCUCAACACAGCGUGGCAAAGUGGCUGUGGCUAGACUGCC

Variants of: B1
Assay: self-cleavage, relative activity (ratio to wild type); higher = more cleavage; in vitro, sequencing; the parent is a self-cleaving ribozyme

Variant | self-cleavage
GUCAGAGCUCAACACAGCGUGGCAAAGUGGCUGUGUCUUGACUGCC [G2U G36U A39U] | 0.05
GGACGAGCUUAACACAGCGUGGCAAAGUGGCUAUAGUUAGACUGCC [C3A A4C C10U G33A G35A C37U] | 0.05
GUCAGAGCUCAACACAGCGUGGCAAAGUGGCUGAGGCUAGGCUGCC [G2U U34A A41G] | 0
GGAGGAGCUAAACACCGCGUGGCAAAGUGGCUGUGGCUAGAAUGCC [C3A A4G C10A A16C C42A] | 0.01
GUCAGAGCUCAACACAGCGUGGCAAAGUGGCGGUGGCUAGACUGUU [G2U U32G C45U C46U] | 0.01
GGACGCGCUCAACACAGCGUGGCAAACUGGCUGUGGCUAGAAUGCC [C3A A4C A6C G27C C42A] | 0.16
GUCAGAGCUCAACACAGCGUGGCAAAGCGGCUUUGGCUAGACUGCC [G2U U28C G33U] | 0.08
GUCAGAGCGCAUCACAGCGUGGCAAAGUGGCUGUGGCUAGACUGCC [G2U U9G A12U] | 0.05
GUCAGAGCUCAACACAGCGUGGCAAAGUGGCUGUGGCUACAGUGCG [G2U G40C C42G C46G] | 0.02
GGACGAGCUAAACACAGCGUGGCAAAGUGGCUAUGGCUAGACUUCC [C3A A4C C10A G33A G44U] | 0.63
GGAGGAGCUCAACACAGCGUGGCAAAGUGGCUGUGGCUGGACUGCC [C3A A4G A39G] | 0.52
GGAGGAGCUCAACAUAGCGUGGCAAAGUGGCUGUGGCUAGACUGCC [C3A A4G C15U] | 0.71
GUCAGAGCGCAACACAGCGUGGCAAAGUGGCUGUGGCUAAACUGCC [G2U U9G G40A] | 0
GUCAGAGCUCAACACAGCGUGGCAAAGUGGCCAUGGCCAGACUGCC [G2U U32C G33A U38C] | 0.02
GGAUGAGCUCAACACAGUGUGGCAAAUUGGCUGUGGCUAGACUGGC [C3A A4U C18U G27U C45G] | 0.19
GGAGGAGCUCAACACAGCGUGGCAAAGAGGCUGUAGCUAGACUGCC [C3A A4G U28A G35A] | 0.12
GUCAGAGCCCAACACAGCGUGGCAAAGUGGCUGUGGCUAGACCGUU [G2U U9C U43C C45U C46U] | 0.01
GUCAGAGCUCAACACAGCGUGGCAAAGUGGCUGCGGCGAGAUUGCC [G2U U34C U38G C42U] | 0.01
GUCAGAGCUCAACACAGCGUGGCAAAGUGGCUGCGGCUAGACUGCA [G2U U34C C46A] | 0.02

Variant | self-cleavage
GGAGGAGCUCAACACAGCGUGGCAAAGUGGCUGUCGCUAGACUGAC [C3A A4G G35C C45A] | 0.11
GUCAGAGCUCAACACAGCGUGGCAAAGCGGCUGUGGAAAGAGUGCC [G2U U28C C37A U38A C42G] | 0.04
GGACGAGCUCAACACAGCGUGGCGAAGUGGCUGGGGCUAGACUGCC [C3A A4C A24G U34G] | 0.1
GGACGAGCUCAACACAGCGUCGCAAAGUGGCCGUGGCUAGACUGCC [C3A A4C G21C U32C] | 0.02
GUCAGAGCUCAACACAGCGUGGCAAAGUGGCUCUGGCUAGACUACC [G2U G33C G44A] | 0.01
GUCAGAGCUCAACACAGCGUGGCAAAGUGGCUGUAACUAGACUGCC [G2U G35A G36A] | 0.05
GUCAGAGCUCAACACAGCGUGGCAAAGUGGCUGUGGCAAAACUUCC [G2U U38A G40A G44U] | 0.02
GGAGGAGCUCAACAAAGCGUGGCAAAGAGGCUGUGGCUAGACUGCC [C3A A4G C15A U28A] | 0.13
GUCAGAGCUCAACACAGCGUGGCAAAGUGGCUGUUGCUAGUCUGCC [G2U G35U A41U] | 0.03
GGACCAGCUCAACACAGCGUGGCAAAGUGGCUGUGGCUAGACUGCC [C3A A4C G5C] | 0.34
GUCAGAGCUCAACACAGCGAGGCAUAGUAGCUGUGGCUAGAAUGCC [G2U U20A A25U G29A C42A] | 0.35
GGACGAGCUCAAAACAGCGUGGCAAAGUGGCUGUGGCUAUACUGCC [C3A A4C C13A G40U] | 0.07
GUCAGAGCUCAACACAGCGCGGCCAAGUGGCUGUGGCGAGACUGCA [G2U U20C A24C U38G C46A] | 0.01
GGACGAGCUCAACACAGCUUCGCAAAGUGGCUGUGGCUAGACUGCC [C3A A4C G19U G21C] | 0.07
GGACGAGCUCAACAUAGCGUGGCAAAGUGGCUGCGGCUAGACUGCU [C3A A4C C15U U34C C46U] | 0.06
GUCAGAGCUCAACACAGCGUGGCAAAGGGGCUGUAGCUAGAUUGCC [G2U U28G G35A C42U] | 0.03
GUCAGAGCUCAACACAGCGUGGCAAAGUGGCUUAGGCUAGACUGCC [G2U G33U U34A] | 0.02
GUCAGAGCACAACACACCGUGGCAAAGUAGCUGUGGCUAGACUGCC [G2U U9A G17C G29A] | 0.06
GGAGGAGCUCAACACUGCGUGGCAAAGUGGCUGUGGCUAGACUGCC [C3A A4G A16U] | 0

Variant | self-cleavage
GUCAGAGCGGAAGACAGCCUGGCAAAGUGGCUGUGGCUAGACUGCC [G2U U9G C10G C13G G19C] | 0
GUCAGAGCUCAACACAGCGAGGCAAAGUGGCUGUGGCUAGACUGCG [G2U U20A C46G] | 0.02
GUCAGAGCUCAACACAGCGGGGCAAAGUGGCCGUGGCUAGACUGCC [G2U U20G U32C] | 0
GGAUGAGCUCAACACAGCGUGGCAAAGUGGCUGUGGCUAUACUGCC [C3A A4U G40U] | 0.11
GUCAGAGCUCAACACAGCGUGGCAAAGUGGCGGUGGUUGGACUGCC [G2U U32G C37U A39G] | 0.01
GGACGAGCUCAACACAGCGUGGCAAAGUGGCUGUGGCUAGAGUGCC [C3A A4C C42G] | 0.06
GGAUGAGCCCAACACAGCGUGGUAAAGUGGCUGUGACUAGACUGGC [C3A A4U U9C C23U G36A C45G] | 0
GGAGGAACUCAACACAGCGUGGCAAAGUGGCUGUGGCUAGACUGCC [C3A A4G G7A] | 0.11
GUCAGAGCGCCACAAAGCGUGGCAAUGUGGCUGUGGCUAGACAGCC [G2U U9G A11C C15A A26U U43A] | 0
GUCAGAGCACAACACAGCCUACCAAAGUGGCUGUGGCUAGACUGCC [G2U U9A G19C G21A G22C] | 0.03
GUCAGAGCUCAACACAGCGUGGCAAAGUGGCUGUGGCAAGAAUGCC [G2U U38A C42A] | 0.04
GUCAGAGCACAACACAGCGUUGAAAAGUGGCUGCGGCUAGACUGCC [G2U U9A G21U C23A U34C] | 0.09
GUCAGAGCUCAACACAGCGUGGCAAAGUGGCUGUGGCUAGACUACU [G2U G44A C46U] | 0.03
GUCAGAGCUCAACACAGCGUGGCAAAGUGGCCGUGACUAGACUGGC [G2U U32C G36A C45G] | 0.02
GGAGGAGCUCAACACAGCGUCGCAAAGUGGCUGUGGCUAGACUGCC [C3A A4G G21C] | 0.08
GGAGGUGCUCAACACAACCAGGCAAAGUGGUUGUGGCUAGACUGCC [C3A A4G A6U G17A G19C U20A C31U] | 0.04
GGAGGAGCUCAACACAGCUUGCCACAGUGGCUGUGGCUAGACUGCC [C3A A4G G19U G22C A25C] | 0.34
GUCAGAGCUCAACACAGCGUGGCAAAGUGGCGGUGGCUAAACUGCC [G2U U32G G40A] | 0.03
